Measured values published in publication PMC6919601, “Identification of Plasmodium dipeptidyl aminopeptidase allosteric inhibitors by high throughput screening” (PLoS ONE, 2019).
About 230 (0.21%) of roughly 110,000 compounds showed an effect of 50% or more. This is one part of the list.

target: DPAP1 (Plasmodium falciparum, UniProt Q8IIJ9); test: primary screen, percent inhibition; read by cleavage of a fluorogenic dipeptide substrate; higher = more effect of the substance; parameters: species or system P. falciparum D10 trophozoite lysates; single well
Sequence (Q8IIJ9 whole entry, looked up): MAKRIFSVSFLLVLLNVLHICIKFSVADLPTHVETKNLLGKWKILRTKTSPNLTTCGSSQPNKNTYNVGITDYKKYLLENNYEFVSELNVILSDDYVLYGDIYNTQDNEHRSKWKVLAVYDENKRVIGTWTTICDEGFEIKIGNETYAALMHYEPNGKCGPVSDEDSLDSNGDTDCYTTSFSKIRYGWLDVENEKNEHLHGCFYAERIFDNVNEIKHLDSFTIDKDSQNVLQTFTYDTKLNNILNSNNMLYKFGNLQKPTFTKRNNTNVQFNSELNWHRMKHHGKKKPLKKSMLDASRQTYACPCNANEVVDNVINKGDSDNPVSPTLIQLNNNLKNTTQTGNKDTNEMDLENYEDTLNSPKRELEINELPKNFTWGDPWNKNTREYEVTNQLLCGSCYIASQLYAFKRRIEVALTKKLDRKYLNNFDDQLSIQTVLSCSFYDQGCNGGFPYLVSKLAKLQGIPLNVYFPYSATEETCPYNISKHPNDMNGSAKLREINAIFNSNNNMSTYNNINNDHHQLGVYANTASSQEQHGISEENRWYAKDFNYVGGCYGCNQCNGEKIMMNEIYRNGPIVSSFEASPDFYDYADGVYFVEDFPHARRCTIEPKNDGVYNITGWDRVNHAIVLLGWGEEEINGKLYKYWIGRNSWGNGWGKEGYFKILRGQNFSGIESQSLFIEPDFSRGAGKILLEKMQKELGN
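Note: 30 min substrate incubation versus DMSO and 10 µM JCP410 controls.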

Compound	% Inhibition @ 10 uM
COc1ccc(OC)c(NC(=O)CCc2ccccc2)c1	5.42%
CC1CCCCN1CCNc1ncnc2onc(-c3ccc(Cl)cc3)c12 (stereo not shown)	-3.95%
N#C/C(=C\Nc1cc(Cl)ccc1O)C(=O)NC(=O)Cc1ccccc1	-2.87%
Cc1sc2c(c1C)CSC(C(=O)NCc1ccc3c(c1)OCO3)=C2	11.9%
O=C(Nc1ccc(C(F)(F)F)cc1)C1CCN(S(=O)(=O)c2cc(Cl)ccc2Cl)CC1	-9.08%
COc1cc(C2=NOC(C(=O)NCc3cccnc3)C2)cc(OC)c1OC (stereo not shown)	-0.431%
Cc1cc(C)nc(NS(=O)(=O)c2ccc(NC(=O)Cc3ccccc3)cc2)n1	11.4%
COc1ccc(-c2cs/c(=N\c3ccc(OC(F)F)cc3)n2CCO)cc1	0.993%
CC1=CC2=NC(=O)/C(=C/c3ccc(OCc4cc(=O)n5nc(C)sc5n4)cc3)C(=N)N2O1	-9.6%
CCOC(=O)N1CCC2(CC1)C(C#N)=C(N)Oc1[nH]nc(C)c12	9.39%
COC(=O)c1nc2n(n1)C(c1cc(OC)ccc1OC)/C(=C(\O)OC1CCCCC1)C(C)=N2 (stereo not shown)	2.17%
Cc1nc2c(C(=O)N(C)Cc3ccco3)cnn2c(O)c1Cc1ccccc1F	1.62%
C=CCSc1ncc(Cl)c(C(=O)Nc2nc3ccc(OC)cc3s2)n1	-0.946%
Nc1c(C(=O)Nc2cc(F)ccc2F)sc2nc(-c3cccs3)ccc12	-1.02%
CCCCCC(=O)Nc1ccc(CN2CCOCC2)cc1	0.851%
CC(=O)c1c(N)nc(C)nc1-c1ccccc1	-14.6%
O=C1S/C(=C/c2cccnc2)C(=O)N1Cc1c(F)cccc1Cl	-6.44%
COc1cc(C)ccc1OCCSc1nc(-c2ccc(C)cc2)nc2cc(=O)[nH]n12	-5.33%
O=C1C(=O)N(C2CCCCC2)C(=O)N1C1CCCCC1	2.38%
O=C(O)c1c2c(nc3ccc(Br)cc13)CCCC2	5.01%
Cc1oc2ncn3c(C)nnc3c2c1C(=O)NC1CC1	1.08%
CNC(=O)CCCc1nnc2n(C)c(=O)c3sccc3n12	-1.35%

Compound	% Inhibition @ 10 uM
O=C(NCCC1=CCCCC1)C1CCN(S(=O)(=O)N2CCOCC2)CC1	0.387%
Cc1ccccc1Cc1c(C)nc2c(C(=O)N3CCN(c4ccccn4)CC3)cnn2c1C	1.16%
O=C(CN(c1ccc(F)cc1)S(=O)(=O)c1ccccc1)NC1CCCC1	-9.66%
O=c1c(CN2CCC(O)CC2)coc2ccc(Cl)cc12	-2.95%
COc1cc(/C=C2\SC(Nc3ccc(F)cc3)=NC2=O)ccc1O	0.59%
COc1ccc(OC)c(S(=O)(=O)N2CCCC2C(=O)NC23CC4CC(CC(C4)C2)C3)c1 (stereo not shown)	10.4%
CCc1ccc(-n2nc(C)c3c(C)cc(=O)n(CC(=O)NC(C)C)c32)cc1	5.62%
CCCN1C(=O)CN(C2CCCCC2)C(=O)C1c1ccc(OC(C)C)c(OC)c1 (stereo not shown)	4.47%
CC1(C)CC2(CCO1)OC(=O)CC2C(=O)NCc1ccccc1 (stereo not shown)	-5.15%
C=CCn1c(S)nnc1-c1ccco1	2.7%
CCC(C)N(C(=O)c1cc(Cl)ccc1OC)C(C)CC (stereo not shown)	-3.24%
CN(C)CCN(Cc1ccccc1)Cc1ccc(Cl)c(Cl)c1	-5.2%
Clc1cccc(OCCN2CCN(c3ccccc3)CC2)c1	-1.89%
CN1CCN(Cc2nc3c(c(=O)n(C)c(=O)n3C)n2CCCc2ccccc2)CC1	-5.1%
C=CCn1c(SCC(=O)Nc2cccc(C(C)=O)c2)nc2sc3c(c2c1=O)CCC3	-4.61%
OC(CN1CCCC1)Cn1c2ccccc2c2ccccc21 (stereo not shown)	-6.06%
COc1cccc2c1cc1c(=O)n(CC(=O)NCCc3ccc(S(N)(=O)=O)cc3)nc(C)n12	-3.47%
Cc1nn(C(=O)CCC(=O)NCc2cccnc2)c2ccccc12	2.07%
O=C(NC(Cc1ccccc1)C(=O)N1CCC2(CC1)OCCO2)C1CCCCC1 (stereo not shown)	-4.06%
Cc1ccc2c(c1)C(=O)OC(C(=O)Nc1nccs1)C2 (stereo not shown)	1.91%
Cc1ccc(-c2c(N3CCC(C)CC3)c(=O)c2=O)cc1C	21.6%
Oc1ccc(-c2ccccc2)cc1	10.4%

Compound	% Inhibition @ 10 uM
CCOc1ccc(Cc2c(C)nc(N)nc2O)cc1	0.0265%
CCOC(=O)C1=C(C)N=c2s/c(=C/c3ccc(Br)s3)c(=O)n2C1c1cccs1 (stereo not shown)	0.685%
Cc1oc(C)c2c(=O)cc(-c3ccc4c(c3)OCO4)cc(OC(=O)c3cccs3)c12	-4.75%
CC(C)Oc1ccc(C(=O)Nc2nc3ccccc3s2)cc1	0.145%
N#CC1=C(N)OC2=C(C(=O)CC(c3ccccc3)C2)C1c1cccc2ccccc12 (stereo not shown)	7.65%
Cc1nc2nc(-c3ccccc3)nn2c(O)c1Cc1ccccc1	-2.4%
O=C(Nc1cccc(Br)c1)C1CCN(S(=O)(=O)c2cc(Cl)ccc2Cl)CC1	-3.05%
Fc1ccccc1N1CCN(Cc2cccc(Cl)c2)CC1	1.55%
Cc1cc(C)n2nc(NC(=O)CCc3ccccc3)nc2n1	0.401%
CC(C)(C)c1oc(C(=O)O)cc1CN1CCCC1	-3.65%
CCc1nnc(SCC(=O)N(CC)Cc2ccccc2)c2cc3sc(C)cc3n12	-10.2%
Cc1cc(-c2nc3ccccc3[nH]2)c2ccccc2n1	4.7%
Cc1ccc(CS(=O)Cc2ccc(C(=O)NCC(C)c3ccccc3)o2)cc1 (stereo not shown)	-5.37%
CCCCNS(=O)(=O)c1ccc(C)c([N+](=O)[O-])c1	0.962%
Cc1c(-c2nsc(NC(=O)c3ccccc3)n2)nnn1-c1ccccc1F	-5.47%
CCOc1ccc(Cc2[nH]nc3c2C(=O)CCC3)cc1OCC	-4.49%
COc1ccc(S(=O)(=O)N2CN3CCN(C3)C2)cc1	-3.14%
Cc1ccc(C2=NN(CCC(=O)NC(C)c3ccccc3)C(=O)CC2)cc1 (stereo not shown)	-1.79%
CCn1cc2c(n1)-c1c(oc(C(=O)NCc3cc(Br)ccc3OC)c1C)CC2	4.33%
CCc1ccc(/C=N\n2cnnc2)cc1	6.23%
